Source: paper PMC3605390, “Characterisation of ATP-Dependent Mur Ligases Involved in the Biogenesis of Cell Wall Peptidoglycan in Mycobacterium tuberculosis” (PLoS ONE, 2013)
Like-named read-outs stand apart in the source and are kept apart here. These are yes or no findings as the source states them, for the method shown. In cells and extracts the contact can be indirect. Some results given as binding are weak or reduced against the parent protein; the word gives no strength. Where a sequence is shown, tags or fusion partners need not be part of it.

Sequences of proteins named here, by UniProt entry; tags and fusion partners are left off.
UniProt P9WH21: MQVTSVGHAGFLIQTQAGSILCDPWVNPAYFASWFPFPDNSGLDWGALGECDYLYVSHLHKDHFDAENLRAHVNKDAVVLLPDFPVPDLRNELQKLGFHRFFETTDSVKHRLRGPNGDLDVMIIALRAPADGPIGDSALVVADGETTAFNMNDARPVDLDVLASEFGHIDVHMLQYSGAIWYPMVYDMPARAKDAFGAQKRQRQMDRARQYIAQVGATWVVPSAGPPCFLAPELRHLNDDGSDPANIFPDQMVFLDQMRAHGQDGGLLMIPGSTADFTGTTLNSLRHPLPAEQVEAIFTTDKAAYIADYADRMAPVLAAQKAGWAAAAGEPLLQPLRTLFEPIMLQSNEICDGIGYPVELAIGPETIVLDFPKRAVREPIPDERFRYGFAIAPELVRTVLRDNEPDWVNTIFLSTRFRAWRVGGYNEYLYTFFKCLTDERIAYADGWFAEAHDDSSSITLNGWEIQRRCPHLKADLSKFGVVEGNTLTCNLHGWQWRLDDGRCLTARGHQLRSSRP

T1: MurC synthetase (Rv2152c) of Mycobacterium tuberculosis, M-PFC fusion (Mycobacterium tuberculosis H37Rv) (UniProt P9WJL7)
T1 sequence: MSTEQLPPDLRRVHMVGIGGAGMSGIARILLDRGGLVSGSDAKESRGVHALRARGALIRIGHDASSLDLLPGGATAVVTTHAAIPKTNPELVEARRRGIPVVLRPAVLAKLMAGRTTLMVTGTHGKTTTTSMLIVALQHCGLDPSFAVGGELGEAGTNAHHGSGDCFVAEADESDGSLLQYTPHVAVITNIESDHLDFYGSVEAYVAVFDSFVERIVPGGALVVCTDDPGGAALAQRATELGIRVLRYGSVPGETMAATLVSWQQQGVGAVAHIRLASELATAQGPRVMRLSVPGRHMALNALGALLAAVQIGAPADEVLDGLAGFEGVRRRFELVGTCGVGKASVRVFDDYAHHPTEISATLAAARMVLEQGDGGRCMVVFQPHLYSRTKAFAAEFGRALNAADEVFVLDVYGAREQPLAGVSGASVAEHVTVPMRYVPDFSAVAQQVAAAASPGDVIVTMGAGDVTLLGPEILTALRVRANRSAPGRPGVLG

T2: MurD synthetase (Rv2155c) of Mycobacterium tuberculosis, M-PFC fusion (Mycobacterium tuberculosis H37Rv) (UniProt P9WJL5)
T2 sequence: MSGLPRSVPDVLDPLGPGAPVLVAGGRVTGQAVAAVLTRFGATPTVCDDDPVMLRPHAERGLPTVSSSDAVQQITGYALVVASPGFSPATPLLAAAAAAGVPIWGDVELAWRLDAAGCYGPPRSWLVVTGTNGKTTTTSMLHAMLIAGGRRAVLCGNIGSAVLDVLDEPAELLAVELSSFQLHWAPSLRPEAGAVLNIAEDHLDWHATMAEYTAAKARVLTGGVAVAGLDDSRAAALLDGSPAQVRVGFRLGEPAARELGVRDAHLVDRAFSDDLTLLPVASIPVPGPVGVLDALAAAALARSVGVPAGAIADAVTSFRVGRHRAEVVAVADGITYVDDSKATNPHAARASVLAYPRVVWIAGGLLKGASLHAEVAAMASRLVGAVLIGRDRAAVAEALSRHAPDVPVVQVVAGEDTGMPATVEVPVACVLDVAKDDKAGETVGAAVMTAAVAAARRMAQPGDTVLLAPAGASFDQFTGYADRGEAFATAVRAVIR

T3: MurE synthetase (Rv2158c) of Mycobacterium tuberculosis, M-PFC fusion (Mycobacterium tuberculosis H37Rv) (UniProt P9WJL3)
T3 sequence: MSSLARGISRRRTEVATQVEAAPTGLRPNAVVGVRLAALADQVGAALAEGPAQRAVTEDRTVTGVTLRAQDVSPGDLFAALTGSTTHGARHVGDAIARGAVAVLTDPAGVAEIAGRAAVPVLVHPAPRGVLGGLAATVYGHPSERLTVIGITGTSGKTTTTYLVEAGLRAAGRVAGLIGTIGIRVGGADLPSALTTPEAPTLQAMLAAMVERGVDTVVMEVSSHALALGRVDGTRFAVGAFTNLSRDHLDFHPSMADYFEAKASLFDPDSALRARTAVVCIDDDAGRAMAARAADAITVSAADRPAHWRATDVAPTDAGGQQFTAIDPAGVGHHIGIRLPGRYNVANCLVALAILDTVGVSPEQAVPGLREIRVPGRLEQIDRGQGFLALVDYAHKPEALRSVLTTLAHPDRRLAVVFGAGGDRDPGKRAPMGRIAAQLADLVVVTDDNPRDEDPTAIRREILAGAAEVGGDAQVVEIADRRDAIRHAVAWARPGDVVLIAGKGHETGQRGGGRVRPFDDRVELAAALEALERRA

T4: MurF synthetase (Rv2157c) of Mycobacterium tuberculosis, M-PFC fusion (Mycobacterium tuberculosis H37Rv) (UniProt P9WJL1)
T4 sequence: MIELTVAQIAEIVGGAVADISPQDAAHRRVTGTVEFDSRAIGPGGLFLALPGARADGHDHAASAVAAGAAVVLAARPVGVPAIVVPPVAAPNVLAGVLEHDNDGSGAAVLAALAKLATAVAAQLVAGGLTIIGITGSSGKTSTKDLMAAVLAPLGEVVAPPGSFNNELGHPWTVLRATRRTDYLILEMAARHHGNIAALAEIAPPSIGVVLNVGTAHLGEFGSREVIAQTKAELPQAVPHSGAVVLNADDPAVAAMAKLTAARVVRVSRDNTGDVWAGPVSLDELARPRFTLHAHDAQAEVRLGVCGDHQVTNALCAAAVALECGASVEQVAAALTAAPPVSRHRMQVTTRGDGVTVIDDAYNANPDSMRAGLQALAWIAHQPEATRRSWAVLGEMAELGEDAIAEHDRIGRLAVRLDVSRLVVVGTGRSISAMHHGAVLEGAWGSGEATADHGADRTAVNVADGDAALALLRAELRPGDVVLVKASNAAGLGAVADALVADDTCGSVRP

B1: MurE synthetase (Rv2158c) of Mycobacterium tuberculosis, M-PFC fusion (enzyme, UniProt P9WJL3 1-535)
chain: T3 sequence
B2: glutamate racemase (MurI, Rv1338) of Mycobacterium tuberculosis, M-PFC fusion (enzyme, UniProt P9WPW9 1-271)
chain: MNSPLAPVGVFDSGVGGLTVARAIIDQLPDEDIVYVGDTGNGPYGPLTIPEIRAHALAIGDDLVGRGVKALVIACNSASSACLRDARERYQVPVVEVILPAVRRAVAATRNGRIGVIGTRATITSHAYQDAFAAARDTEITAVACPRFVDFVERGVTSGRQVLGLAQGYLEPLQRAEVDTLVLGCTHYPLLSGLIQLAMGENVTLVSSAEETAKEVVRVLTEIDLLRPHDAPPATRIFEATGDPEAFTKLAARFLGPVLGGVQPVHPSRIH
B3: MurD synthetase (Rv2155c) of Mycobacterium tuberculosis, M-PFC fusion (enzyme, UniProt P9WJL5 1-496)
chain: T2 sequence
B4: MurF synthetase (Rv2157c) of Mycobacterium tuberculosis, M-PFC fusion (enzyme, UniProt P9WJL1 1-510)
chain: T4 sequence
B5: diaminopimelate epimerase (DapF, Rv2726c) of Mycobacterium tuberculosis, M-PFC fusion (enzyme, UniProt P9WP19 1-289)
chain: MIFAKGHGTQNDFVLLPDVDAELVLTAARVAALCDRRKGLGADGVLRVTTAGAAQAVGVLDSLPEGVRVTDWYMDYRNADGSAAQMCGNGVRVFAHYLRASGLEVRDEFVVGSLAGPRPVTCHHVEAAYADVSVDMGKANRLGAGEAVVGGRRFHGLAVDVGNPHLACVDSQLTVDGLAALDVGAPVSFDGAQFPDGVNVEVLTAPVDGAVWMRVHERGVGETRSCGTGTVAAAVAALAAVGSPTGTLTVHVPGGEVVVTVTDATSFLRGPSVLVARGDLADDWWNAMG
B6: Ser/Thr protein kinase PknA (Rv0015c) of Mycobacterium tuberculosis, M-PFC fusion (enzyme, UniProt P9WI83 1-431)
chain: MSPRVGVTLSGRYRLQRLIATGGMGQVWEAVDNRLGRRVAVKVLKSEFSSDPEFIERFRAEARTTAMLNHPGIASVHDYGESQMNGEGRTAYLVMELVNGEPLNSVLKRTGRLSLRHALDMLEQTGRALQIAHAAGLVHRDVKPGNILITPTGQVKITDFGIAKAVDAAPVTQTGMVMGTAQYIAPEQALGHDASPASDVYSLGVVGYEAVSGKRPFAGDGALTVAMKHIKEPPPPLPPDLPPNVRELIEITLVKNPAMRYRSGGPFADAVAAVRAGRRPPRPSQTPPPGRAAPAAIPSGTTARVAANSAGRTAASRRSRPATGGHRPPRRTFSSGQRALLWAAGVLGALAIIIAVLLVIKAPGDNSPQQAPTPTVTTTGNPPASNTGGTDASPRLNWTERGETRHSGLQSWVVPPTPHSRASLARYEIAQ
B7: Ser/Thr protein kinase PknB (Rv0014c) of Mycobacterium tuberculosis, M-PFC fusion (enzyme, UniProt P9WI81 1-626)
chain: MTTPSHLSDRYELGEILGFGGMSEVHLARDLRLHRDVAVKVLRADLARDPSFYLRFRREAQNAAALNHPAIVAVYDTGEAETPAGPLPYIVMEYVDGVTLRDIVHTEGPMTPKRAIEVIADACQALNFSHQNGIIHRDVKPANIMISATNAVKVMDFGIARAIADSGNSVTQTAAVIGTAQYLSPEQARGDSVDARSDVYSLGCVLYEVLTGEPPFTGDSPVSVAYQHVREDPIPPSARHEGLSADLDAVVLKALAKNPENRYQTAAEMRADLVRVHNGEPPEAPKVLTDAERTSLLSSAAGNLSGPRTDPLPRQDLDDTDRDRSIGSVGRWVAVVAVLAVLTVVVTIAINTFGGITRDVQVPDVRGQSSADAIATLQNRGFKIRTLQKPDSTIPPDHVIGTDPAANTSVSAGDEITVNVSTGPEQREIPDVSTLTYAEAVKKLTAAGFGRFKQANSPSTPELVGKVIGTNPPANQTSAITNVVIIIVGSGPATKDIPDVAGQTVDVAQKNLNVYGFTKFSQASVDSPRPAGEVTGTNPPAGTTVPVDSVIELQVSKGNQFVMPDLSGMFWVDAEPRLRALGWTGMLDKGADVDAGGSQHNRVVYQNPPAGTGVNRDGIITLRFGQ

Key:
Experiment in all cases: split reporter
[1] = molecular target: T1, MurC synthetase (Rv2152c) of Mycobacterium tuberculosis, M-PFC fusion (Mycobacterium tuberculosis H37Rv)
[2] = molecular target: T2, MurD synthetase (Rv2155c) of Mycobacterium tuberculosis, M-PFC fusion (Mycobacterium tuberculosis H37Rv)
[3] = molecular target: T3, MurE synthetase (Rv2158c) of Mycobacterium tuberculosis, M-PFC fusion (Mycobacterium tuberculosis H37Rv)
[4] = molecular target: T4, MurF synthetase (Rv2157c) of Mycobacterium tuberculosis, M-PFC fusion (Mycobacterium tuberculosis H37Rv)
[5] = molecular target: T1, MurC synthetase (Rv2152c) of Mycobacterium tuberculosis, M-PFC fusion (Mycobacterium tuberculosis H37Rv); remark: listed apart in the source
[6] = molecular target: T2, MurD synthetase (Rv2155c) of Mycobacterium tuberculosis, M-PFC fusion (Mycobacterium tuberculosis H37Rv); remark: listed apart in the source
[7] = molecular target: T3, MurE synthetase (Rv2158c) of Mycobacterium tuberculosis, M-PFC fusion (Mycobacterium tuberculosis H37Rv); remark: listed apart in the source
[8] = molecular target: T4, MurF synthetase (Rv2157c) of Mycobacterium tuberculosis, M-PFC fusion (Mycobacterium tuberculosis H37Rv); remark: listed apart in the source

Molecule	binding [1]	binding [2]	binding [3]	binding [4]	binding [5]	binding [6]	binding [7]	binding [8]
product of Rv3818 (namH homologue) of Mycobacterium tuberculosis, M-PFC fusion (from UniProt P9WH21 1-516) (enzyme)	no binding	no binding	no binding	binds	–	–	–	–
B1	–	–	–	–	no binding	no binding	–	–
B2	–	–	–	–	no binding	binds	no binding	no binding
B3	–	–	–	–	no binding	–	–	–
B4	–	–	–	–	no binding	no binding	no binding	–
B5	–	–	–	–	no binding	no binding	binds	no binding
B6	–	–	–	–	binds	binds	binds	binds
B7	–	–	–	–	binds	binds	binds	binds
